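Following 48 hours of exposure in 96-well plates, responses at five concentrations were used to interpolate endpoints linearly. Here, GI50 denotes the concentration required for 50% inhibition of growth.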 Active and inactive are the calls of the source. No stated cut-off is given here; in the data, active = GI50 up to about 1.1 µM and inactive = higher. Peptide text beside a SMILES is read from it. * marks the point of attachment. Trt = c1ccc(C(c2ccccc2)(c2ccccc2)*)cc1; Cbz = O=C(OCc1ccccc1)*
test system: NCI-H322M; assay: growth of human tumour cells (NCI), 48 h

| Structure (SMILES) | GI50 |
| --- | --- |
| CO[C@]12CC(=O)C3(C(C[C@H]4CC5CC[C@H]6C[C@@H](OC(C)=O)CC[C@]6(OC(C)=O)C5C[C@@]43C)C1)C1C[C@H]3[C@@H]4CC[C@H]5C[C@@H](OC(C)=O)CC[C@]5(OC(C)=O)[C@H]4CC[C@]3(C)C12 (some centres undefined) | inactive: > 100 µM |
| C[C@]12CC[C@H](OCCC#N)CC1=CC[C@@H]1C2CC[C@]2(C)/C(=N/OCCC#N)CCC12 (some centres undefined) | inactive: > 100 µM |
| CCOC(=O)c1cc2cc3c4c(c2oc1=O)CCCN4CCC3 | inactive: 41.5 µM |
| COc1cc2c(/C=C3/C(=O)Nc4cc(C)c(O)cc43)c(Cl)[nH]c2cc1C | inactive: 1.14 µM |
| NCCSC(c1ccccc1)c1ccccc1 | inactive: 22.3 µM |
| CN(CC(=O)N1CC(CCl)c2ccc([N+](=O)[O-])cc21)CC(=O)N1CC(CCl)c2ccc([N+](=O)[O-])cc21 (centres undefined) | inactive: > 100 µM |
| CN(C)CCNc1ccc(C(=O)NCCCN(C)CCCNC(=O)c2ccc(NCCN(C)C)c3c(=O)c4ccccc4[nH]c23)c2[nH]c3ccccc3c(=O)c12 | active: 0.0254 µM |
| O=C1C=CC(=O)c2ccc(=O)ccc21 | inactive: 16.5 µM |
| COc1ccc(C(=O)/C=C/c2ccc(OCC#N)cc2)cc1OC | inactive: 18.2 µM |
| O=C1c2c(c3c4ccccc4n4c3c3c2c2ccccc2n3C/C=C\C4)C(=O)N1Cc1ccccc1 | inactive: > 100 µM |
| CC1(C)CC(=O)C2=C(C1)c1c(ccc3ccccc13)NC2c1cn(Cc2ccc(Cl)cc2)c2ccccc12 (centres undefined) | inactive: 67.9 µM |
| CC(C)CC(NC(O)[BH2-][N+](C)(C)C)C(=O)NC(Cc1ccccc1)C(=O)N[C@H]1c2ccsc2/C(=N/O)[C@H]1O (some centres undefined) | inactive: > 100 µM |
| CCOC(=O)NNC1(SC)NC(=O)c2c(cc(Cl)oc2=O)O1 (centres undefined) | inactive: 11 µM |
| Fc1ccc2nc3n(c2c1)C(c1c(F)cccc1F)SC3 (centres undefined) | inactive: 97.9 µM |
| CC(=O)Nc1cc(/C=C\C(=O)N2CC(CCl)c3c2cc(N)c2ccccc32)n(C)n1 (centres undefined) | active: 0.0137 µM |
| COC(=O)C1=C(OC)C(=P2(c3ccccc3)CC(c3ccccc3)=C2c2ccccc2)C(C(=O)OC)=C1C(=O)OC (centres undefined) | inactive: > 100 µM |
| O=Cn1c2ccccc2c2ccccc21 | inactive: > 100 µM |
| COc1ccc(C(=O)NNC(=O)c2nsc3ccccc23)cc1 | inactive: > 100 µM |
| CCC1CCC2c3c([nH]c4ccc(C)cc34)C3C(=O)N(N(C)C)C(=O)C3C2C1 (centres undefined) | inactive: 48.1 µM |
| CS(=O)(=O)c1nc(-c2cc3c(c(S(C)(=O)=O)n2)CCC3)cc2c1CCCCC2 | inactive: > 100 µM |
| COc1cc(C2c3cc4c(cc3OC(C)(O)C2C)OCO4)cc(OC)c1OC (centres undefined) | active: 0.4 µM |
| CCCCCCCCCCCOCCC1C(C(C)OCCN2CCCC2)OC2OC(C)(C)OC21 (centres undefined) | inactive: 2.92 µM |
| O=C(N/N=C\c1ccc2ccccc2c1)Nc1ccc([N+](=O)[O-])cc1 | inactive: 31.4 µM |

| Structure (SMILES) | GI50 |
| --- | --- |
| CC(=O)Oc1cc(/C=C/c2ccc(O)cc2)cc(OC(C)=O)c1 | inactive: 38 µM |
| CC(=O)Nc1ccccc1-c1nc2ccccc2nc1C | inactive: > 100 µM |
| C=C1N(C)c2ccc(S(=O)(=O)c3ccc4c(c3)C(C)(C)C(=C)N4C)cc2C1(C)C | inactive: 73.6 µM |
| COc1cc(/C=C2/SC(c3ccccc3)N(c3cccc(NC(C)=O)c3)C2=O)cc(OC)c1OC (centres undefined) | inactive: > 100 µM |
| Cc1c2cccc-2ccc2c1[nH]c1ccccc12 | inactive: 4.36 µM |
| Cc1cc(S(=O)(=O)N2CCNNC2=O)c(S)cc1Cl | inactive: 5.9 µM |
| COc1ccc(-n2c(C)nc3ccc(NC4OC(CO)C(O)C(O)C4O)cc3c2=O)cc1 (centres undefined) | inactive: > 100 µM |
| CC(=O)OC1C=CC2CCN3C(=O)c4cc5c(cc4[C@H]1C23)OCO5 (some centres undefined) | inactive: > 100 µM |
| O=C1CC(c2cccc(Cl)c2)Oc2ccccc21 (centres undefined) | inactive: 33.9 µM |
| COc1ccc(NC/C=C/C(=C/COC(C)=O)OC(C)=O)cc1 | inactive: 7.45 µM |
| CC(=O)OCC(OC(C)=O)C(OC(C)=O)C(/C=N\Nc1nc2ccccc2c(=O)[nH]1)OC(C)=O (centres undefined) | inactive: > 100 µM |
| COc1ccc(C2=Cc3nc2c(-c2ccccc2)c2ccc([nH]2)c(-c2ccccc2)c2nc(c(-c4ccccc4)c4ccc([nH]4)c3-c3ccccc3)C=C2)cc1 | inactive: > 100 µM |
| O=C1NC(NCc2ccc(F)cc2)=N/C1=C\c1ccccc1Cl | inactive: 16.2 µM |
| Cc1nc2ccccc2c(=O)n1NC(=S)Nc1ccc(Cl)cc1[N+](=O)[O-] | inactive: > 100 µM |
| NS(=O)(=O)c1nnc(NC(=O)N(c2ccccc2)c2ccccc2)s1 | inactive: 23.8 µM |
| C=C[C@@]1(C)CC[C@@H]2[C@@]3(C1)O[C@H]3CC1[C@](C)(C(=O)OC)CCC[C@@]12C (some centres undefined) | inactive: 10.5 µM |
| CN1CCC(O)(OC(=O)C(c2ccccc2)C2(O)CCCC2)CC1 (centres undefined) | inactive: > 100 µM |
| COc1cc(OC)c(C2CC=Cc3c(OC)cc(OC)c(OC)c32)cc1OC (centres undefined) | inactive: > 100 µM |
| Nc1nc(-c2ccco2)cc(-c2ccc(CO)o2)n1 | inactive: > 100 µM |
| O=C(CCc1nnc(S)[nH]1)NC12CC3CC(CC(C3)C1)C2 | inactive: > 100 µM |
| O=C(O)c1c2c(cc3c1CC(Cc1ccccc1)C3=O)CCC2 (centres undefined) | inactive: > 100 µM |
| Cn1c2c(c3ccccc31)CCN(CCCCN1CCCCC1)C2=O | inactive: 85.3 µM |
| CCOC(=O)CCC(C(=O)OCC)n1nnc2cc(Nc3c(C)[n+]([O-])c4ccc(Cl)cc4[n+]3[O-])ccc21 (centres undefined) | inactive: > 100 µM |

| Structure (SMILES) | GI50 |
| --- | --- |
| CC1CCCCCC(=O)c2c(O)cc(O)cc2CC(=O)O1 (centres undefined) [CURVULARIN] | inactive: > 100 µM |
| COCCOCOC(CCCCO)c1cc(C)c(O[Si](C)(C)C(C)(C)C)c(C)c1 (centres undefined) | inactive: 13.8 µM |
| O=C(c1ccccc1)c1ccc2c(c1)N=C(c1ccc(Cl)c(Cl)c1)CC(c1ccc3ccccc3c1)N2 (centres undefined) | inactive: > 100 µM |
| CC(=O)OCC12CC(CC1OC(C)=O)c1ccccc12 (centres undefined) | inactive: > 100 µM |
| CC[C@@H](/C=C\CCC1(C[C@H](O)CCC=C(C)C)OCCO1)O[Si](C(C)C)(C(C)C)C(C)C | inactive: 38.2 µM |
| CCCCCCCCCc1cc(=O)c2ccc(OCc3ccccc3)cc2o1 | inactive: > 100 µM |
| CC1CN=C(NCc2ccccc2)S1 (centres undefined) | inactive: > 100 µM |
| COc1ccc(N(CC(=O)O)S(=O)(=O)c2ccccc2)cc1 | inactive: > 100 µM |
| CCOC(=O)C(C(=O)OCC)c1cc(-c2cc3ccccc3o2)oc(=O)c1C#N | inactive: 28.1 µM |
| CNC(=S)NNc1ncnc2c1c(-c1ccc(Cl)cc1)cn2-c1ccc(C)cc1 | inactive: 10.2 µM |
| O=C(c1ccco1)N(C(=S)N1CCN(c2ccccn2)CC1)c1ccccc1 | inactive: > 100 µM |
| Cc1ccc2c(c1)C(C1Cc3c(C)cccc3C1=O)OC2=O (centres undefined) | inactive: 23 µM |
| O=C1CCCC1CC(CN1CCOCC1)Sc1nnnn1-c1ccccc1 (centres undefined) | inactive: > 100 µM |
| COC(=O)[C@H](NC(=O)OC(C)(C)C)[C@H]1COC(C)(C)O1 | inactive: > 100 µM |
| NC1CCCCC1.O=C(O)C1(P(=O)(O)O)CC1 | inactive: 54.6 µM |
| C=CCOc1ccc(C2C(C(=O)OCC)C(=O)CC(C)(O)C2C(=O)OCC)cc1OC (centres undefined) | inactive: > 100 µM |
| Cc1ncn(-c2ccccc2O)c1C | inactive: > 100 µM |
| c1ccc2c(CSCc3cccc4ccccc34)cccc2c1 | inactive: > 100 µM |
| Cc1c(Cl)ccc2c1NC(=O)C2(O)CC(=O)c1ccc(Cl)cc1 (centres undefined) | inactive: > 100 µM |
| COc1cc(C23OCC(Cc4cc5c(cc42)OCO5)C3CO)cc(OC)c1OC (centres undefined) | inactive: 6.21 µM |
| CCN1CCC(O)(/C=C/c2ccccc2)C(C(=O)/C=C/c2ccccc2)C1 (centres undefined) | inactive: 5.5 µM |
| C[Si](C)(C)CNC(=O)OCc1ccccc1 | inactive: > 100 µM |
| O=C(NC1C(=O)NNC1c1ccccc1Cl)c1ccccc1 (centres undefined) | inactive: > 100 µM |

| Structure (SMILES) | GI50 |
| --- | --- |
| COc1ccc2oc(=O)c(CC=C(C)C)c(O)c2c1C | inactive: > 100 µM |
| O=C1C=CC(=O)c2c1ccc1c3ccccc3n(-c3ccccn3)c21 | inactive: > 100 µM |
| NCCOCC(N)C(=O)O (centres undefined) | inactive: > 100 µM |
| CC/C=C\C=C/C(=O)N/C=C/CCC | inactive: > 100 µM |
| C=C1CC[C@@H]2C(C)(C)CCC[C@@]2(C)[C@@H]1Cc1cc(O)ccc1O | inactive: 11.4 µM |
| Cc1cc(C)nc(NC(=S)Nc2ccc(Cl)cc2)c1 | inactive: > 100 µM |
| Cc1cc(C)nc(NS(=O)(=O)c2ccc(Nc3c4ccc(Cl)cc4nc4c(C(=O)NCCN(C)C)cccc34)cc2)n1 | inactive: > 100 µM |
| CCCN1CN(C(C(=O)N[C@@H]2C(=O)N3C2SC(C)(C)C3C(=O)O)c2ccc(O)cc2)CSC1=S (some centres undefined) | inactive: > 100 µM |
| O=c1[nH]c(=O)n(C2CC(O)C(CO)O2)cc1OC/C=C/Cc1ccccc1 (centres undefined) | inactive: > 100 µM |
| COC(=O)C(CO)NC(=O)C(CSC(c1ccccc1)(c1ccccc1)c1ccccc1)NC(=O)OCc1ccccc1 (centres undefined) (Cbz-Cys(Trt)-Ser-OMe; configuration not given here) | inactive: 19.3 µM |
| O=C(CC(C(=O)c1cccs1)c1ccsc1)c1ccccc1 (centres undefined) | inactive: > 100 µM |
| Oc1ccc(Cl)cc1C1=Nn2c(COc3ccc4c(c3)CCCC4)nnc2SC1 | inactive: 22.9 µM |
| COc1cc(CC2c3cc(OC)c(OC)cc3CCN2C)c(Oc2cc3c(cc2OC)-c2c(O)c(OC)cc4c2C(C3)N(C)CC4)cc1OC (centres undefined) | inactive: 19.5 µM |
| CCOc1cc2c(c(OCC)c1O)CC[C@@H]1[C@@H]2CC[C@]2(C)[C@@H](O)CC[C@@H]12 | inactive: 5.71 µM |
| Cc1ccc(/N=N/NCCCCN/N=N/c2ccc(C)cc2)cc1 | inactive: > 100 µM |
| COC(=O)[C@]1(C)CCC[C@@]2(C)C1CCC1=C[C@@]3(C(C)C)CC[C@]12OO3 (some centres undefined) | inactive: 50.1 µM |
| O=C1O[C@H](COC(=O)c2ccccc2)[C@@H](OC(=O)c2ccccc2)C=C1OC(=O)c1ccccc1 | inactive: 33.7 µM |
| CC(C(O)c1ccccc1)N(C)/N=N/c1nc2c([nH]1)c(=O)n(C)c(=O)n2C (centres undefined) | inactive: > 100 µM |
| COC1CC(n2ccc(=O)[nH]c2=O)OC1CO (centres undefined) | inactive: > 100 µM |
| Nc1cc2c(c3ccccc13)C(CCl)CN2C(=O)c1cc2cc(NC(=O)Nc3ccc4[nH]c(C(=O)N5CC(CCl)c6c5cc(N)c5ccccc65)cc4c3)ccc2[nH]1 (centres undefined) | inactive: 1.42 µM |
